The other results are listed elsewhere or left out. At the low end of the ranking the order means little.
The sequences below were run against T1, GST-Rok-C97-191 (UniProt O34857) (assay: protein binding microarray). Details: Rok is a gene silencer of Bacillus subtilis; high values mean tight binding; most listed sequences are background and not binding sites; double strand, one strand shown.
T1 sequence: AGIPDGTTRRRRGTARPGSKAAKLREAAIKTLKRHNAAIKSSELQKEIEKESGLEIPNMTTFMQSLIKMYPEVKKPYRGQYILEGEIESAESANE
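Also: rank score from −0.5 (least bound) to 0.5 (best bound).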

| Sequence | binding signal [E-score] |
| --- | --- |
| CAAGCAGC | -0.31 |
| GGGCAGGA | -0.228 |
| ATGAAAAA | -0.0951 |
| AAACAGCT | 0.0832 |
| CCCCGGGA | -0.232 |
| ACGTTCAT | -0.0242 |
| ACGTATAG | 0.226 |
| CTCCAATC | -0.0262 |
| ATTAATCG | 0.109 |
| AATTTAGA | 0.198 |
| ACTTATGA | 0.192 |
| ATGTCACA | -0.00652 |
| GCTCTCCC | -0.216 |
| AGGCAAGA | -0.255 |
| AGATTCCG | 0.131 |
| ACGATGAT | 0.0117 |
| ATCAAGAT | 0.0161 |
| GCCCACCC | -0.242 |
| CAGGGTAG | -0.0513 |
| CCGTTCAG | -0.00769 |
| CTGGGACC | -0.219 |
| ACTCCCTC | -0.0848 |

| Sequence | binding signal [E-score] |
| --- | --- |
| CGATGACG | -0.128 |
| AAAGTTAC | 0.0701 |
| AACTGTAA | 0.168 |
| CCGCCAAA | -0.219 |
| CAATCGTC | -0.159 |
| ACGATGAA | 0.00189 |
| GACATGCC | 0.0128 |
| ACGAATTC | 0.072 |
| AAGTTTAC | -0.0631 |
| CAGGGTTC | -0.203 |
| GTAGGCCA | -0.0884 |
| ACGGAACA | -0.144 |
| ACGTGTAC | -0.0357 |
| GTCCAGTA | 0.143 |
| ATAGATCG | 0.132 |
| GGCGATTA | -0.109 |
| CGCTGTAA | 0.164 |
| AAATTCGG | 0.083 |
| ATCTATAA | 0.355 |
| AACGCCCG | -0.065 |
| CTGGCATC | -0.101 |
| GTCTACAC | -0.042 |

| Sequence | binding signal [E-score] |
| --- | --- |
| CGCACGCA | -0.217 |
| TGATAGAA | 0.385 |
| GTCGCGAC | -0.0778 |
| AGGACAGA | -0.11 |
| CAAATAAG | 0.0433 |
| CGCCGTTA | -0.19 |
| AACGGATA | -0.00876 |
| GGAGGTAC | 0.014 |
| ACGCGAGG | -0.269 |
| ACATTGTC | 0.0195 |
| CGCACGAA | 0.0122 |
| ACACAGTG | 0.0988 |
| AACCGCTG | -0.311 |
| CTCTTGAA | -0.261 |
| ACCGAGGA | -0.259 |
| CACGCAAG | -0.148 |
| GATTAGAA | -0.0111 |
| ACCATCAT | 0.0551 |
| GCCGGTTA | -0.173 |
| CTTCATGA | -0.151 |
| ACACATAC | 0.256 |
| ATCAGTTG | 0.0096 |

| Sequence | binding signal [E-score] |
| --- | --- |
| CACTCCTA | 0.107 |
| ACCTATAC | 0.166 |
| AGATTGAA | -0.0266 |
| AAAAAGGC | -0.00272 |
| CAGGAAAA | -0.0662 |
| CATACCGG | 0.153 |
| GCCTTAAA | -0.0724 |
| AAGTCTGT | -0.0588 |
| CAATGCAC | -0.0287 |
| AACGATAG | 0.199 |
| AGAGATAG | 0.188 |
| AGGTGAAG | -0.109 |
| TCAATTCA | 0.0501 |
| AGGAGAGG | -0.272 |
| TGTGATAA | 0.0773 |
| CCGGCCAG | -0.249 |
| GAGCGATA | 0.0452 |
| TCTTTCAA | -0.0733 |
| ACACATCG | -0.04 |
| AGGGGTAT | -0.0357 |

Source: article PMC6212790
